Earlier results, collected in PMC11006913.
This is one part of the list.

Target: T1, PBX4 R215Q (Homo sapiens) (UniProt Q9BYU1)
T1 sequence: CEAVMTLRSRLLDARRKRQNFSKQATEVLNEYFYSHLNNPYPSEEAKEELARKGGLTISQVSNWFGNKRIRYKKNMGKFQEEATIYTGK
Details: PBM; conditions not shown; double strand, one strand shown; scale: upbm affinity estimate (log intensity, higher = more binding, comparable within an allelic series)

| Sequence | binding signal |
| --- | --- |
| CCGCGGGA [8-mer CCGCGGGA] | 9.74 |
| CCGTGGCA [8-mer CCGTGGCA] | 9.8 |
| ATCGGGCA [8-mer ATCGGGCA] | 9.88 |
| CTTGACTC [8-mer CTTGACTC] | 9.84 |
| CACCCCAA [8-mer CACCCCAA] | 9.94 |
| ACGCTACT [8-mer ACGCTACT] | 9.87 |
| ACGCTGTC [8-mer ACGCTGTC] | 9.88 |
| TCATCAAA [8-mer TCATCAAA] | 10.2 |
| CACGTCAA [8-mer CACGTCAA] | 10.2 |
| CCGGAGGC [8-mer CCGGAGGC] | 9.67 |
| ACGTCAAC [8-mer ACGTCAAC] | 10.1 |
